Data as given in paper PMC2782911 (Cancer, 2009).

Test system: histone H4-Lys[16] acetylation
Test: Western blot of acetylation status of histone H4-Lys16 in MCF7 cells
Conditions: SLC5A8-expressing MCF7 cells cultured with compound (1 mM)

Structure (SMILES)	acetylation status of histone H4-Lys[16]
O=C(O)C(=O)CBr [3-bromopyruvate]	increased
CC(=O)C(=O)O [pyruvate]	increased
